The values below come from PMC12040169 (PLOS Biology, 2025).

SMILES strings stand for the structures. The list shows a part of the results.

In the experiment the test system is T1, C. trachomatis L2/434/Bu expressing GFP (CTL2-GFP).
T1 construct: L2/434/Bu GFP intracellular growth in HeLa cells
The arrangement: species or system HeLa; C. trachomatis total inclusion area by high-content imaging, normalised to DMSO. Conditions: total inclusion area; 28.5 h, 10 µM; inhibitor. In a few lines:
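High-content imaging followed the bulk GFP/resorufin measurement: fixed, Hoechst-stained cells were scored for GFP inclusions and host nuclei per well. Total inclusion area and count served as growth proxies, nuclei number as the viability proxy. MIC calculation matched the bulk assay.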
As to `O=C(O)COc1ccc(/C=N/n2cnnc2)cc1Cl` [CBK263902], the “% of control remaining” value was 97.6541.

On to `CC(=O)Nc1ccc(-c2ccc(C(=O)N3CCN(C4CCN(C)CC4)CC3)cn2)cc1` [CBK158824], for which the “% of control remaining” value was determined as 81.4735.

For the compound `Cc1ccc(CN(C)CC(=O)Nc2cc(C(F)(F)F)ccc2Cl)o1` [CBK306085], the “% of control remaining” value was 45.0013.

Consider `COc1ccc(CCCC(=O)Nc2cc3cccnc3c(Br)n2)cc1` [CBK119486], for which the “% of control remaining” value turned out to be 90.0159.

Take `Cn1nc(-c2ccccc2)cc1[C@H]1CN2CC[C@H]1C[C@@H]2CNC(=O)N1CCOCC1` [CBK289094]: the “% of control remaining” value stood at 78.2623.

As for `CCn1cc(-c2cncn2CCCn2ccnc2C(C)C)cn1` [CBK282244], the “% of control remaining” value was determined as 97.2537.

As to `COCCn1c(=O)n(Cc2ccccc2)c2cccnc21` [CBK283964], the “% of control remaining” value amounted to 103.747.

Consider `NC(=O)c1nnc2ccc(Cl)cc2c1N` [CBK026161], for which the “% of control remaining” value worked out at 73.162.

On to `CN(C)c1ccc(/C=C/c2noc(-c3ccccc3O)n2)cc1` [CBK268438], for which the “% of control remaining” value is 135.532.

For `CC(C)C(=O)N1CCC(Cn2nc(-c3ccccc3)ccc2=O)CC1` [CBK284114], the “% of control remaining” value stood at 81.4186.

On to `COC(=O)c1c(NC(=S)Nc2cnccn2)sc2c1CCC(C)C2` (stereo not shown) [CBK266893], for which the “% of control remaining” value came out at 97.4204.

Regarding `COc1ccc(OC)c(N/C=C(/C#N)c2nc(-c3cc4c(ccc5ccccc54)oc3=O)cs2)c1` [CBK262991], the “% of control remaining” value turned out to be 83.5697.

`O=C(Nc1cccc(-c2nnco2)c1)C1CCCCC1` [CBK296662]: the “% of control remaining” value was 104.613.

Take `O=C(O)CCc1nc2nc(-c3ccco3)cc(C(F)(F)F)n2n1` [CBK286889]: the “% of control remaining” value stood at 99.8351.

For `CC(C)c1csc(C2CCN(C(=O)CCc3ccsc3)CC2)n1` [CBK305327], the “% of control remaining” value amounted to 14.5323.

Turning to `Cc1n[nH]c(C)c1CCC(=O)N/N=C/c1cccc(O)c1` [CBK262910], the “% of control remaining” value is reported as 115.366.

`COc1cccc(NC(=O)C2CCCCC2C(=O)O)c1` (stereo not shown) [CBK262410]: the “% of control remaining” value amounted to 97.7109.

Consider `COCC(C)NC(=O)Cn1c(-c2ccc(F)cc2)cc2cccnc21` (stereo not shown) [CBK284863], for which the “% of control remaining” value came out at 96.9924.

Turning to `C/C(=N\NC(=N)N)C(F)(F)F` [CBK023019G], the “% of control remaining” value worked out at 96.7365.

`CC(C)NC(=O)CN1CCC(N(C)Cc2cccc(C(F)(F)F)c2)CC1` [CBK305429]: the “% of control remaining” value worked out at 97.5215.

Take `Cn1cnnc1SCCNC(=O)N1CCc2sccc2C1` [CBK307385]: the “% of control remaining” value was determined as 62.8635.

For the compound `Cc1c(C(=O)O)sc(S(=O)(=O)N2CCN(C(=O)CC(C)c3ccccc3)CC2)c1C(=O)O` (stereo not shown) [CBK297143], the “% of control remaining” value is recorded as 82.9217.

For `CC(C)COC(=O)CCNc1n[nH]c(=O)[nH]c1=O` [CBK293920], the “% of control remaining” value was 80.6092.

Turning to `Cc1nn(C)cc1-c1c(C#N)c(N)nc2c1CN(Cc1ccco1)CC2` [CBK306722], the “% of control remaining” value was found to be 90.266.

Regarding `CC12CN3CC(C)(CN(C1)C3c1ccc(Br)cc1)C2=O` (stereo not shown) [CBK261452], the “% of control remaining” value is 107.408.

For the compound `COCCNc1nc(-c2ccccc2CO)cnc1N` [CBK063575], the “% of control remaining” value worked out at 96.6549.

`CCOc1ccc(N2C(=O)CC(NC3CCN(c4ncccn4)CC3)C2=O)cc1` (stereo not shown) [CBK269972]: the “% of control remaining” value is listed as 105.11.

As to `Cc1cc(C(=O)NC(C)Cn2nc(C)cc2C)c2cccc(C)c2n1` (stereo not shown) [CBK281635], the “% of control remaining” value is listed as 96.6541.

Regarding `CCCNc1cc(C)nc2cc(-c3ccc(OC)c(OC)c3)nn12` [CBK287805], the “% of control remaining” value was found to be 97.4013.

For the compound `OC1(CN2CCCC2)COCCN(c2nnc(-c3ccccc3)s2)C1` (stereo not shown) [CBK306558], the “% of control remaining” value came out at 113.482.

`Cc1ccc(C(=O)NCc2ccco2)c(NCc2cccnc2)n1` [CBK076383]: the “% of control remaining” value is 103.856.

`CC(C)c1ccc(N2C(=O)[C@@H]3C[C@@H](NC(=O)c4cccs4)CCN3C2=O)cc1` [CBK289541]: the “% of control remaining” value is 107.012.

Take `FC(F)(F)c1cccc(-c2nccnc2NCc2cccs2)c1` [CBK037298]: the “% of control remaining” value was found to be 89.8983.

`O=C(CN1C(=O)c2ccccc2C1=O)Nc1cccc2ncccc12` [CBK262761]: the “% of control remaining” value was determined as 94.527.

As for `Cn1c(CN2CCN(C(=O)c3ccco3)CC2)nc2cc([N+](=O)[O-])ccc21` [CBK268473], the “% of control remaining” value stood at 78.0798.

Turning to `CC(=O)Nc1ccc(Cc2nc(C3CC3)no2)cc1` [CBK305197], the “% of control remaining” value is listed as 51.3032.

Regarding `COC1C(O)C(CO)OC1n1cc(F)c(=O)[nH]c1=O` (stereo not shown) [CBK201253], the “% of control remaining” value was determined as 105.481.

Take `NCCc1c[nH]c2ccc(OCC(=O)O)cc12` [CBK265853C]: the “% of control remaining” value stood at 119.567.

Regarding `NC(=O)C1(Cc2ccc(-c3ccccc3)cc2)CCN(C(=O)CCc2ccccc2)CC1` [CBK285772], the “% of control remaining” value is given as 54.8881.

For the compound `CCOc1ccc(-n2c(SCc3ccc(Br)cc3)nnc2-c2ccncc2)cc1` [CBK266017], the “% of control remaining” value came to 113.695.
